The list shows a part of the results.

From paper PMC12040169 (PLOS Biology, 2025) come the findings set out here.

The test system of the experiment is T1, C. trachomatis L2/434/Bu expressing GFP (CTL2-GFP).
T1 construct: L2/434/Bu GFP intracellular growth in HeLa cells
Set-up: species or system HeLa; C. trachomatis total inclusion area by high-content imaging, normalised to DMSO. Particulars: total inclusion area; 28.5 h, 10 µM; inhibitor. An outline of the steps:
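Host cell viability was gauged from Hoechst-stained nuclei counts, while chlamydial growth was taken from total inclusion area and inclusion number per well. Cells were fixed and imaged by high-content microscopy once bulk GFP and resorufin fluorescence had been measured.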
For the molecule `Nc1cc2ccccc2c(-c2ccsc2)n1` [CBK085710], the “% of control remaining” value worked out at 88.7011.

For `COc1ccc(C)cc1S(=O)(=O)Nc1cc(OCCN2CCOCC2)c2occc2c1` [CBK067419C], the “% of control remaining” value was found to be 90.7795.

As for `CCn1c(COc2c(C)cccc2C)nnc1SCC(=O)N1c2ccccc2Sc2ccccc21` [CBK268103], the “% of control remaining” value was 113.435.

Turning to `COc1ncccc1C(=O)NCC(CC(=O)O)c1ccc(Cl)cc1` (centres unmarked) [CBK287264], the “% of control remaining” value is reported as 97.2268.

Turning to `COc1ccc(C2c3c(-c4cc(C)c(C)cc4O)n[nH]c3C(=O)N2Cc2cccnc2)cc1OC` (centres unmarked) [CBK268846], the “% of control remaining” value was determined as 96.5007.

For the molecule `Cc1nn(CC(=O)N2CCCC(C)C2)c(=O)c2cc3ccsc3n12` (centres unmarked) [CBK284041], the “% of control remaining” value was determined as 101.256.

In the case of `Nc1nc(OCc2ccc3c(c2)OCO3)cnc1/C=C/c1ccccc1` [CBK145123], the “% of control remaining” value is listed as 108.058.

For the molecule `O=C(NCc1cccc(C(F)(F)F)c1)c1ccccc1-n1cccc1` [CBK149598], the “% of control remaining” value came to 3.726.

In the case of `Nc1cccc(Oc2ccc(C(=O)O)c(C(=O)O)c2)c1` [CBK261180], the “% of control remaining” value amounted to 53.2885.

Consider `O=C(O)c1cccc(NS(=O)(=O)Cc2ccccc2[N+](=O)[O-])c1` [CBK038906], for which the “% of control remaining” value was found to be 74.0929.

`COc1cc2c(cc1OC)CN(C(=O)CSc1nnc3ccccn13)CC2` [CBK287814]: the “% of control remaining” value is on record as 93.1777.

As to `COc1cc(C(=O)NCc2ccccn2)cc(OC)c1OC` [CBK058552], the “% of control remaining” value is recorded as 97.3901.

In the case of `Cc1ccccc1C(c1ncccc1C)N(C)C(=O)C1CCN(Cc2ccc(Cl)c(Cl)c2)CC1` (centres unmarked) [CBK148366], the “% of control remaining” value was determined as 93.4072.

For the molecule `CCOc1ccc2[nH]c3c(c2c1)CN(C(=O)C1(C)CCCO1)CC3` (centres unmarked) [CBK282659], the “% of control remaining” value is reported as 102.787.

With `CC(C)C(=O)N[C@@H](C)Cn1nc(-c2cccs2)oc1=O` [CBK284335], the “% of control remaining” value was determined as 67.0238.

On to `Cc1nn(CC(=O)N2CCCC2)c(=O)c2cc3occc3n12` [CBK283621], for which the “% of control remaining” value was 93.7625.

On to `CCC1CCCCN1Cc1c(O)ccc2c(=O)c(Oc3ccc(OC)cc3)c(C(F)(F)F)oc12` (centres unmarked) [CBK263727], for which the “% of control remaining” value is reported as 103.147.

In the case of `COc1ccc(OC)c(NC(=O)NCCc2c[nH]cn2)c1` [CBK269956], the “% of control remaining” value is 94.2637.

With `CN(C)C(=O)c1ccc(-c2ccc(OC3CCN(C(=O)CC(C)(C)c4ccccc4)CC3)nc2)cc1` [CBK155047], the “% of control remaining” value was determined as 72.3057.

Turning to `Cc1ccc(C2CC(=O)c3cnc(N)nc3C2)cc1` (centres unmarked) [CBK288166], the “% of control remaining” value is 119.246.

`CN(C)CCN(C)c1cc(C(F)(F)F)nc(NCc2ccc(Cl)cc2)n1` [CBK009668]: the “% of control remaining” value came out at 70.7721.

Take `COc1ccc(Cl)cc1S(=O)(=O)N1CCN(Cc2ccc3c(c2)OCO3)CC1` [CBK266913]: the “% of control remaining” value was 121.397.

In the case of `O=S(=O)(Nc1cc(O[C@@H]2CCNC2)c2occc2c1)c1ccccc1Br` [CBK200020C], the “% of control remaining” value is 85.9559.

Turning to `CCn1nc(C)c(-c2cncn2CCn2nc(C)c(C)c2C)c1C` [CBK281782], the “% of control remaining” value stood at 104.235.

Consider `COCCNc1nc2c(c(N3CCSCC3)n1)CCNCC2` [CBK307510], for which the “% of control remaining” value is given as 77.5968.

Regarding `O=c1c2c3c(sc2nc(SCc2cc(O)[nH]n2)n1Cc1ccco1)CCC3` [CBK268301], the “% of control remaining” value is 117.059.

With `CCCC/C=C/c1cnc(N)c(N[C@H](C)c2ccccc2)n1` [CBK064148], the “% of control remaining” value amounted to 101.772.

As for `COc1nn(C)c(CO)c1Cc1c(Cl)cccc1Cl` [CBK092285T], the “% of control remaining” value came out at 103.653.

Consider `FC(F)(F)c1cccnc1OCCOc1ccc(Cl)cc1` [CBK116621], for which the “% of control remaining” value worked out at 95.8647.

On to `O=C(O)c1cccc(NS(=O)(=O)c2cccs2)c1` [CBK270068], for which the “% of control remaining” value is reported as 86.7082.

For `CS(=O)(=O)Nc1ccc(CNC(=O)c2ccccc2Nc2cccc(C(F)(F)F)c2)cc1` [CBK161732], the “% of control remaining” value was determined as 68.4479.

`Clc1ccc(Cl)c(-c2ccc(CNCc3cccnc3)o2)c1` [CBK269720C]: the “% of control remaining” value is recorded as 53.8133.

Turning to `CCCC/C=C/c1cn2ccnc2c(NCc2cc(OC)c(OC)c(OC)c2)n1` [CBK066331], the “% of control remaining” value is recorded as 123.273.

Turning to `Cc1nc(-c2ccc(CNS(=O)(=O)c3ccc(Cl)cc3)cc2)ccc1C(N)=O` [CBK285643], the “% of control remaining” value was 106.635.

`CCCC/C=C/c1nccnc1N[C@@H](CO)C(C)C` [CBK037514]: the “% of control remaining” value came to 95.3144.

Consider `O=C(O)CCSC1CC(=O)N(c2ccc(F)cc2)C1=O` (centres unmarked) [CBK276120], for which the “% of control remaining” value turned out to be 85.4336.

On to `O=C(O)c1cc(N/N=C/c2ccc(-c3ccc(Cl)c(C(=O)O)c3)o2)ccc1Cl` [CBK262483], for which the “% of control remaining” value was 96.9049.

`O=C1Nc2cc(Cl)ccc2C2=NCCCN12` [CBK284385]: the “% of control remaining” value is given as 86.9988.

For the molecule `CCN1CCCCC1CNC(=O)c1n[nH]c2c1CCC2` (centres unmarked) [CBK282207], the “% of control remaining” value is recorded as 90.421.

Regarding `O=C(CCn1cc(Br)ccc1=O)NC1CCN(Cc2ccccc2)CC1` [CBK305778], the “% of control remaining” value is 78.9405.

Turning to `Cc1ccc(C(C)C)c(OCC(O)CNC(C)C)c1` (centres unmarked) [CBK026604C], the “% of control remaining” value is 110.105.

Take `Cc1cc(CC(=O)NCCc2c[nH]c3ccc(Cl)cc23)on1` [CBK159774]: the “% of control remaining” value is listed as 88.4442.

Consider `Cc1cccnc1C(NC(=O)C1CCN(CCCN2C(=O)CC3CCCCC3C2=O)CC1)c1ccc(F)cc1` (centres unmarked) [CBK147910], for which the “% of control remaining” value came to 89.9511.

In the case of `CN(C)CCN(Cc1ccncc1)Cc1ccsc1` [CBK283206], the “% of control remaining” value came to 38.1093.

As for `CCCCN(C=O)c1c(CC)nc2ccc(C(=O)Nc3ccc(Cl)c(Cl)c3)cn12` [CBK145470], the “% of control remaining” value stood at 95.4441.

For `COc1ccc(Cl)cc1CN(C)C(=O)c1cc(C(C)C)n2ncnc2n1` [CBK307331], the “% of control remaining” value was 91.2054.

Turning to `CCCNc1nccnc1-c1ccc(F)c(Cl)c1` [CBK037100], the “% of control remaining” value was determined as 140.764.

In the case of `O=C(NCCCn1ccnc1)c1cccnc1-c1nc2ccccc2s1` [CBK269939], the “% of control remaining” value turned out to be 96.2438.

In the case of `Cc1cc(C(=O)NC(Cc2ccncc2)C2CC(O)C2)c(C)o1` (centres unmarked) [CBK307181], the “% of control remaining” value is listed as 37.1121.

On to `O=C(Nc1ccccc1C(=O)N1CCCC1)c1ccccc1CCc1ccccc1` [CBK268608], for which the “% of control remaining” value was determined as 82.2597.

For `Cc1nn(C)cc1CNC(=O)c1cc2ncc(Br)cn2n1` [CBK304336], the “% of control remaining” value is given as 74.6545.

Take `CC1CCCC(C)N1C(=O)Cn1ncc2cccn2c1=O` (centres unmarked) [CBK283680]: the “% of control remaining” value came to 92.0522.

As for `Fc1ccc(Oc2nccnc2N2CCN(Cc3ccc(Cl)c(Cl)c3)CC2)cc1` [CBK083007T], the “% of control remaining” value turned out to be 94.0802.

With `O=C1CC2(CCN(C(=O)N3CCCC3)CC2)Oc2ccc(F)cc21` [CBK283597], the “% of control remaining” value is on record as 66.5012.

Take `Nc1nc(CCC(=O)N2Cc3cnn(Cc4ccc(F)cc4)c3C2)cs1` [CBK307019]: the “% of control remaining” value came to 83.9137.

Take `O=C(NCCCc1ccccc1)c1cccc(S(=O)(=O)N2CCCC2)c1` [CBK305024]: the “% of control remaining” value is listed as 76.7684.

For the molecule `O=C(C1CC2C=CC1C21CC1)N1CCN(c2nccs2)CC1` (centres unmarked) [CBK281640], the “% of control remaining” value amounted to 107.822.

On to `O=C(c1ccco1)N1CCN(C(=O)C(c2ccccc2)c2ccccc2)CC1` [CBK144462], for which the “% of control remaining” value is reported as 89.4292.

As for `CC(C)CNC(=S)NNC(=O)CC(C)O` (centres unmarked) [CBK266921], the “% of control remaining” value came out at 107.221.

Regarding `Cc1ccccc1-c1ccccc1CC1(C(N)=O)CCN(C(=O)CCc2ccccc2)CC1` [CBK285725], the “% of control remaining” value is recorded as 101.938.

Consider `CC(C)N1CC[C@@H]2[C@H]1C(=O)NC[C@H](CCC(=O)NCc1ccccc1)N2C` [CBK289027], for which the “% of control remaining” value was 120.336.

In the case of `CCOC(=O)C1CCN(S(=O)(=O)c2ccc(NC(C)=O)c(Cl)c2)CC1` [CBK043748], the “% of control remaining” value is 96.479.

In the case of `CN(C)CCNC(=O)c1cccc(-c2cncc(Nc3cccc(Cl)c3)n2)c1` [CBK065229], the “% of control remaining” value came out at 89.7689.

With `COc1ccc(CCNC(=O)CN2CCCCC2C)cc1` (centres unmarked) [CBK304827], the “% of control remaining” value is given as 95.487.

Regarding `CN(C)CCN(Cc1cccs1)Cc1cc(Cl)ccc1O` [CBK282847], the “% of control remaining” value is given as 65.086.

Take `O=C(Cc1cc(F)cc(F)c1F)Nc1ccc2[nH]ccc2c1` [CBK159686]: the “% of control remaining” value was 99.9126.

In the case of `NCCC(=O)N(CCc1cc(C(F)(F)F)cc(C(F)(F)F)c1)c1ccc(Oc2ccccc2)cc1` [CBK002998T], the “% of control remaining” value came to 52.9448.

For `CN(CC(=O)Nc1ccn(Cc2cccnc2)n1)c1ccc(C#N)cn1` [CBK306105], the “% of control remaining” value is 62.3359.

Take `CCCS(=O)(=O)N1CCN(Cc2cc(Br)ccc2O)CC1` [CBK264165G]: the “% of control remaining” value was 126.268.

Regarding `COc1ccc(C(=O)CCCN2CC3CCC(NC(=O)Nc4ccc(F)c(F)c4)CC3C2)cc1` (centres unmarked) [CBK083514T], the “% of control remaining” value came out at 65.6545.

As to `Cc1ccccc1-n1c(=O)cc(N2CCN(c3ccc(F)cc3)CC2)[nH]c1=O` [CBK287508], the “% of control remaining” value stood at 91.9747.

Turning to `CN1CCC(=NNC(=O)CCSc2ccc(Cl)cc2)CC1` [CBK020372], the “% of control remaining” value was found to be 77.3994.

With `C[N+]1([O-])CCN(c2nccn(CCOc3cc(F)c(F)cc3F)c2=O)CC1` [CBK081593], the “% of control remaining” value came out at 82.2975.

In the case of `CN(C)c1ccc(-n2ccn(S(=O)(=O)c3ccc4ccccc4c3)c2=O)cc1` [CBK106607], the “% of control remaining” value was 130.817.

`CC(C)c1ccc(/C=C/C(=O)N[C@H]2CC[C@H](O)CC2)cc1` [CBK149644]: the “% of control remaining” value is 103.964.

As for `O=C(NC(Cc1ccccc1)C(O)c1nccs1)C1CC=CCC1` (centres unmarked) [CBK284763], the “% of control remaining” value is 76.0391.

For `C=C(C)CN1CCN(C(=O)C(CC)Oc2ccccc2F)CC1` (centres unmarked) [CBK282935], the “% of control remaining” value stood at 105.272.

On to `O=C(c1nccs1)C1CCN(C(=O)c2ccccc2F)CC1` [CBK284174], for which the “% of control remaining” value is on record as 64.395.

As to `Cc1nc(S(=O)(=O)Cc2nccn2C)n(CC2CCCO2)c1C` (centres unmarked) [CBK304012], the “% of control remaining” value is 122.082.

As to `Cc1ccc2oc3c(c(=O)c2c1)C(c1ccc(OCC(N)=O)cc1)N(Cc1ccc2c(c1)OCO2)C3=O` (centres unmarked) [CBK267189], the “% of control remaining” value is given as 111.234.
